# The campaign covered roughly 45,000 compounds. About 200 (0.44%) were called active. About 7% were inconclusive and are not listed. Calls follow the shape of the dose curve; as a rule, active = well fitted activation curve with a large enough effect; inconclusive = small, poorly fitted or top-dose-only effect; inactive = no such curve, though single readings can be large or run the other way. The list shows a part of the results.
# Assay: qHTS of TDP-43 Inhibitors: NCGC Sytravon Library Screen; also: nearly all actives have a fitted effect of over 55% in size; as to growth rescue (activation): 0% is about no effect
# Details: yeast TDP-43 toxicity rescue, BacTiter-Glo growth, 24 h; series mostly up to 46.1 µM; growth rescue (activation): at the top concentration
# In short: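 TDP-43-expressing yeast, pregrown in raffinose, seeded at OD600 0.02 in galactose medium with compound for 24 hr at 30 deg C. Growth read by BacTiter-Glo luminescence, so rescue of toxicity appears as activation.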
# Potency is read from the fitted curve at half-maximal effect.
Structure (SMILES),growth rescue (activation),Potency
N#Cc1ccc(CN2C=NS(=O)(=O)c3ccccc32)cc1,inactive: 12.4%,
CN1CCN(c2ccc(S(=O)(=O)N3CCCCC3)cc2NC(=O)c2ccc(C#N)cc2)CC1,inactive: 11.5%,
O=c1cnn(Cc2ccc(F)cc2)c2ccccc12,inactive: 2.22%,
CCCC(=O)N1CCCC(c2cc(C(=O)NCc3ccc(F)cc3)no2)C1 (stereo unspecified),inactive: 23%,
CC(C)CC(N)c1csc(NC(=O)c2cc(C(C)(C)C)nn2Cc2ccccc2)n1 (stereo unspecified),inactive: 14.3%,
Cc1ccc(S(=O)(=O)N2CCOCC2)cc1NC(=O)Cn1ccsc1=N,inactive: 15.1%,
O=S(=O)(NCCN1CCOCC1)c1ccc(Cl)s1,inactive: 2.05%,
O=C(Nc1ccc(N2CCOCC2)cc1)c1cc2c(s1)CCCCC2,,active: 15.8 µM
CCOC(=O)C(=O)N=Nc1c(O)n(C)c2ccccc12,inactive: -0.787%,
CCOC(=O)Nc1ccc(S(=O)(=O)NC2CCCCC2)cc1,inactive: 13%,
COc1ccc(C2c3[nH]c4ccccc4c3CCN2C(=O)c2cn3ccccc3n2)c(F)c1 (stereo unspecified),inactive: 3.39%,
O=C(CCN1C(=O)C2C3CC(C(Br)C3Br)C2C1=O)OCC(=O)c1cccc([N+](=O)[O-])c1 (stereo unspecified),inactive: 8.47%,
Cc1nc(NCCc2ccccc2)c(C#N)c(C)c1[N+](=O)[O-],inactive: 22.7%,
CC(CC(=O)N1CCN(S(=O)(=O)c2ccccc2)CC1)n1cncn1 (stereo unspecified),inactive: -14.2%,
CCOc1ccccc1NC(=O)CNC(=O)c1nn(-c2ccc(OC)c(OC)c2)c(=O)c2ccccc12,inactive: 12%,
Clc1ccc2nc(N3CCNCC3)nc(-c3ccccc3)c2c1,inactive: -2.63%,
CC(C)(C)Nc1nc2ccc([N+](=O)[O-])cc2o1,inactive: 26.5%,
CCCCNC(=S)N1CCN(C)CC1,inactive: -9.67%,
N=c1sccn1CC(=O)Nc1cccc(S(=O)(=O)N2CCCCCC2)c1,inactive: 3.39%,
O=C(NCC1CC1)c1cccc2c(-c3ccc(F)c(F)c3)coc12,,active: 22.4 µM
Cc1ccccc1C(=O)NC1CCN(CC(=O)NCc2cccs2)CC1,inactive: 16.1%,
CC(C)CCNC(=O)C(=O)Nc1ccccc1,inactive: 7.46%,
CC(C)(C)c1oc(C(=O)O)cc1CN1CCOCC1,inactive: 2.27%,
COc1cc(F)ccc1-c1csc(C(NC(C)=O)c2ccccc2)n1 (stereo unspecified),inactive: 4.56%,

Structure (SMILES),growth rescue (activation),Potency
S=C(NCCc1ccccc1)NC1CC1,inactive: 5.46%,
CCOc1c(CNCc2ccc(C(=O)O)cc2)cccc1OC,inactive: -4.65%,
COc1ccc(NC(=O)NNC(=O)c2ccc(-c3ccccc3)cc2)c(OC)c1,inactive: 17.9%,
COC(CNC(=O)c1ccc2c3c(onc13)-c1ccccc1C2=O)OC,inactive: 13.9%,
O=C(Nc1cccc(S(=O)(=O)N2CCOCC2)c1)[C@@H]1CCCN1S(=O)(=O)c1ccc(Cl)cc1,inactive: -5.55%,
O=C(Nc1nnc(COc2ccccc2)s1)Nc1ccccc1F,inactive: 6.98%,
C=CCN(Cc1nc(-c2ccccc2)no1)C(=O)c1ccco1,inactive: 9.05%,
O=C(Cc1ccccc1)Nn1c(O)c(/C=C2\C=Nc3ccccc32)sc1=S,inactive: 10.6%,
O=C(Nc1ccc2c(c1)OCO2)c1noc2c1CCCC2,inactive: 16%,
Cc1ccc(/C=C2/SC(=Nc3ccc(F)cc3)NC2=O)s1,inactive: 9.32%,
Cc1ccc(NC(=O)C2(c3ccccc3)CC2(Cl)Cl)cc1C (stereo unspecified),inactive: 3.8%,
Cc1ccccc1CCN(C(=O)Cn1nnc2ccccc21)C(C(=O)NCC1CCCO1)c1nc2ccccc2n1C (stereo unspecified),inactive: 0.783%,
Cc1cc(C(F)(F)F)nn1CC(=O)N(C)c1ccccc1,inactive: 5.67%,
Fc1ccc(N2CCN(C3=Nc4cccc5cccc3c45)CC2)cc1,inactive: 3.93%,
Cc1cccc(NC(=O)c2ccc(CN3CCc4ccccc4C3)cc2)c1C,inactive: 17.4%,
CCC(=O)N1CCC1(C)C(=O)NS(=O)(=O)c1cccc(C#N)c1 (stereo unspecified),inactive: 11.9%,
Cc1cccc(Nc2nc(N)nc(CSC(=S)N3CCOCC3)n2)c1,inactive: -4.92%,
Cc1cc(C)c2oc(C(=O)N3CCN(C)CC3)cc(=O)c2c1,inactive: -7.95%,
OC(CNCC1COc2ccccc2O1)COc1ccccc1F (stereo unspecified),inactive: 3.4%,
Cc1cc(Br)c(NC(=O)CCl)c(Br)c1,inactive: 1.8%,
COc1cccc(NC(=O)CN(C)C(=O)C2CC3C=CC2C3)c1 (stereo unspecified),inactive: 3.56%,
Cc1ccc(/C=C/C(=O)NC(=S)Nc2ccc(S(=O)(=O)Nc3cc(C)on3)cc2)cc1,inactive: 21.2%,
O=C(NC(=S)Nc1nc2ccc(F)cc2s1)c1ccco1,inactive: -3.47%,
O=C(O)c1ccc2c(=O)n3c(nc2c1)/C(=C/c1ccc(F)cc1)CC3,inactive: -9.94%,

Structure (SMILES),growth rescue (activation),Potency
OCCN1CCN(c2ncnc3c2ncn3[C@H]2CN(Cc3ccc(-c4ccccc4)cc3)C[C@@H](CO)O2)CC1,inactive: 22.3%,
O=C(CN1CCCC1c1cccs1)Nc1cc(S(=O)(=O)N2CCCC2)ccc1Cl (stereo unspecified),inactive: 1.52%,
COc1ccc(N(Cc2ccccc2)S(=O)(=O)c2cc(C(=O)O)ccc2Cl)cc1,inactive: 20.9%,
COc1ccc2nccnc2c1[N+](=O)[O-],inactive: -7.7%,
O=C(Cc1cccs1)N=Nc1c(O)[nH]c2ccc(Br)cc12,inactive: 18.9%,
O=C(CCc1ccccc1)NNC(=O)Cc1ccccc1,inactive: 0.598%,
CCNC(=O)CCn1nc(-c2ccc(C)cc2)c2ccccc2c1=O,inactive: 5.71%,
Cc1cccc(N2C(=O)CC(Sc3ncn[nH]3)C2=O)c1 (stereo unspecified),inactive: -9.01%,
CCOc1ccc(OCC)c(NC(=O)c2ccc(-c3ccccc3)s2)c1,inactive: 7.28%,
COc1cc(NC(=O)COC(=O)CSc2ccc3ccccc3c2)c(C)cc1[N+](=O)[O-],inactive: 7.18%,
O=C(CCNC(=O)c1ccco1)Nc1nc(-c2ccccc2)cs1,inactive: -13.7%,
CCCCNC(=O)CN1C(=O)NC2(CCOc3ccccc32)C1=O (stereo unspecified),inactive: 5.23%,
CC(=O)C1=C(C)NC(SCC(=O)Nc2nccs2)=C(C#N)C1c1ccccc1Cl (stereo unspecified),inactive: 6.99%,
Cc1cc(C)n2nc(C(=O)OCC(=O)c3cc(C)n(CC4CCCO4)c3C)nc2n1 (stereo unspecified),inactive: 1.94%,
CCn1cc(C(=O)N[C@@H](C)C(=O)NCCCO)c(=O)c2cc3c(cc21)OCO3,inactive: 5.99%,
Brc1ccccc1/C=N/Nc1nc2ccccc2o1,inactive: -6.7%,
COc1cc(OC)c(NC(=O)C(=O)CC(=O)c2ccc(C)cc2C)cc1Cl,inactive: -1.18%,
O=C(NCC(c1ccc(F)cc1)N1CCOCC1)c1c(F)cccc1F (stereo unspecified),inactive: 1.05%,
CC1=C(C(=O)OC(C)C)C(c2cccs2)NC(=S)N1 (stereo unspecified),inactive: -28.9%,
CC(=O)N1c2ccc([N+](=O)[O-])cc2NC(=O)CC1C (stereo unspecified),inactive: 12.9%,
CC(=O)N1CCc2ccccc2C1CC(=O)O (stereo unspecified),inactive: -7.07%,
COc1ccc(C(=O)OCC(=O)c2ccc(F)cc2)cc1OC,inactive: 11.9%,
Cc1onc(-c2ccccc2Cl)c1C(=O)Nc1ccc(N2CCOCC2)cc1,inactive: 5.37%,
